Hit rate of the full screen: of about 16,000 compounds, about 120 (0.75%) were called active. Inconclusive results (about 4%) are left out. Calls come from the whole dose curve; as a rule, active = well fitted inhibition curve with a large enough effect; inconclusive = small, poorly fitted or top-dose-only effect; inactive = no such curve, though single readings can be large or run the other way. The list shows a part of the results.
The molecules below were run against Rap guanine nucleotide exchange factor 3 (Homo sapiens) (UniProt O95398) (assay: Validation qHTS for antagonist of cAMP-regulated guanine nucleotide exchange factor 3 (EPAC1)). Settings: EPAC1 Rap1B-BODIPY-GDP exchange, fluorescence; series mostly up to 150 µM; activity change, negative = inhibition: at the top concentration.
How it was run: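 Nucleotide exchange followed as fluorescence loss when BODIPY-GDP leaves Rap1B (480 nm excitation, 540 nm emission), read at 5 min intervals over 30 min. Reaction: 100 nM EPAC1, 250 nM RAP1B-BODIPY-GDP, 50 uM GDP; ATA and DMSO define normalization.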
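Note: plate controls were DMSO for no effect and ATA control for full effect; nearly all actives have a fitted effect of over 75% in size.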

Chain of UniProt O95398 (O95398 whole entry, looked up): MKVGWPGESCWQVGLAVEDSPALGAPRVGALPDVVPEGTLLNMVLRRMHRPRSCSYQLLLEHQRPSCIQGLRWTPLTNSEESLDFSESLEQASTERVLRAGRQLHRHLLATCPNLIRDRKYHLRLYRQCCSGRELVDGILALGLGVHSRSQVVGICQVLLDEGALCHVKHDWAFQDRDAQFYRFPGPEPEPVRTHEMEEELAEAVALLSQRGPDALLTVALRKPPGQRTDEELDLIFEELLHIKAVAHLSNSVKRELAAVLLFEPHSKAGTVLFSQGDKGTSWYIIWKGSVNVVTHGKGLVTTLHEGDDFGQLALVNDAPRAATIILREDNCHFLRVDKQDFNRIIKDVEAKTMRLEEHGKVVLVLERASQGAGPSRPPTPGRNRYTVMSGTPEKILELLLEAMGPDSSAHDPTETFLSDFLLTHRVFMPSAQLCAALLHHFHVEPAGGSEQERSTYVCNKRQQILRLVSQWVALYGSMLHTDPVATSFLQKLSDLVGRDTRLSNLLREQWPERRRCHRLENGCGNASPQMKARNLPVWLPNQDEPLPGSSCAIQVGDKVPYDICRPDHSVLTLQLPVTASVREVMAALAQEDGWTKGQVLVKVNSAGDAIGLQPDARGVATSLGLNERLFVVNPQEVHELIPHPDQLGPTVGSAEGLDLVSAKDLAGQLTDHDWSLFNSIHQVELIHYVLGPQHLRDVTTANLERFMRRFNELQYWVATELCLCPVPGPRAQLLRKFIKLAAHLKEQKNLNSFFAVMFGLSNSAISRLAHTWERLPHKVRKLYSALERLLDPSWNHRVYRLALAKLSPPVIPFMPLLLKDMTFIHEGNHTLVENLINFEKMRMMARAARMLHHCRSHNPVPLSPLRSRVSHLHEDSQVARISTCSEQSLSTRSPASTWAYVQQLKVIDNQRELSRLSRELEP

Activity change, negative = inhibition, inactive:
Cn1cc(-c2nc3cnc(N4CCOCC4)nc3n(CCC#N)c2=O)c2ccccc21 41.4%, N#Cc1ccccc1OC[C@H](O)CNCCNC(=O)Nc1ccccc1 8.31%, C=CCN1CC[C@@H](O)C(=C)S1(=O)=O 2.18%, COc1cc(=O)n(C)c2c(OCC(O)C(C)(C)O)cccc12 (stereo unspecified) 12%, COc1ccc(CNc2ncncc2-c2c(C)noc2C)c(OC)c1 -7.26%, CCC1CN(Cc2ccc(COC)o2)Cc2cc(OC)ccc2O1 (stereo unspecified) -4.58%, COc1cccc(Cn2c(=O)c(-c3cc(F)cc(F)c3)nc3cnc(OC)nc32)c1 2.88%, CN(C)CCC(c1ccc(Cl)cc1)c1ccccn1 (stereo unspecified) -6.76% [at 75.8 µM], COc1cc(N)c(Cl)cc1C(=O)NC1CCN(CCCOc2ccc(F)cc2)CC1OC (stereo unspecified) 1.64% [at 75.8 µM], C[C@H](O)C(=O)C1=Nc2c(nc(N)[nH]c2=O)NC1 62.7% [at 75.8 µM], CC(O)(COc1ccccc1)c1ccc2c(c1)CN(Cc1cccn1-c1ccccn1)CCO2 (stereo unspecified) -3.67%, CC(=O)N1CCC2(CC1)CCN(c1ncccn1)CC2 10.6%, C=C1CC2C3CCC4=CC(=O)C=C[C@]4(C)[C@@]3(F)[C@@H](O)C[C@]2(C)[C@@]1(O)C(=O)COC(C)=O (stereo partly specified) 19.9%, COC(=O)[C@H]1C(OC)[C@@H](OC(=O)c2cc(OC)c(OC)c(OC)c2)C[C@@H]2CN3CCc4c([nH]c5cc(OC)ccc45)[C@H]3C[C@H]21 (stereo partly specified) -6.08%, O=c1c(-c2ccc(F)cc2)nc2cnc(Nc3ccccc3)nc2n1Cc1cccs1 6.68%, Cc1cccc(CNc2ncnc3ccc(-c4c(C)noc4C)cc23)c1 3.67%, CN(Cc1ccco1)c1cc(-c2cccnc2)ncn1 13.6%, CN1Cc2sccc2C(c2ccc(O)c(O)c2)C1 (stereo unspecified) 20% [at 75.8 µM], COc1cc2c(cc1OC)C(=O)OC2 9.53%, CN1CCN(c2ncc3nc(-c4cccc(C#N)c4)c(=O)n(CCc4ccccc4)c3n2)CC1 7.24%, COc1ccccc1N1CCN(CCN2C(=O)CC3(CCCC3)CC2=O)CC1, CC[C@H](C)N(C)C(=O)c1cc2ccccc2c(-c2ccccc2Cl)n1 -8.6%, OCC(O)CN1CCN(c2ccccc2)CC1 (stereo unspecified) 16.8%, COc1cccc2c3c(c(C)nc12)CC(CO)O3 (stereo unspecified) 20.5%, N#Cc1cccc(-c2cncnc2-n2ccnc2)c1 26.5%, Cc1cc(C(=O)Nc2ccccc2-c2nc(CNC(=O)c3sc(C)nc3C)c(C)o2)c(C)o1 17.6%, COCCn1c(=O)c(CCc2ccccc2)nc2cnc(OC)nc21 22.4%, O=c1c(-c2cccs2)nc2cnc(N3CCOCC3)nc2n1Cc1cccs1 27.6%, N#Cc1ccc(CN2CCC3(CC2)CCN(C(=O)c2cc(C(F)(F)F)cc(C(F)(F)F)c2)CC3)cc1 -29.9%, C#C[C@]1(O)CC[C@H]2[C@H]3CCC4=Cc5oncc5C[C@]4(C)[C@@H]3CC[C@]21C 4.35%, CNC(=O)C[C@@H](N)C(=O)N[C@@H](C(=O)N[C@@H]1C(=O)N2[C@@H]1SC(C)(C)[C@@H]2C(=O)O)c1ccc(O)cc1 0.579%, CO 15.9%, CC(C)(C)C1CCC(=O)N(CCC#N)CC1 (stereo unspecified) 10.9%, CN1CCN(c2ncc3ncc(=O)n(C[C@H]4CCCO4)c3n2)CC1 1.83%, O=C(O)CNC(=O)C(CS)Cc1ccccc1 (stereo unspecified), CCCCCCCC/C=C\CCCCCCCCN 16.1%, O=C(O)c1ccc(NC2OC[C@@H](O)[C@H](O)[C@H]2O)cc1 (stereo partly specified) 2.17%, COc1cccc(-c2cc(N(C)Cc3ccco3)ncn2)c1 -4%, CCCNC(=O)N1N=C(c2ccc(N)cc2)c2cc3c(cc2[C@H]1C)OCO3 -12%, Cc1ncc2c(c1CNS(=O)(=O)c1cccs1)CCN(C(=O)/C=C/c1cc(F)cc(F)c1)C2 -0.501%, Cc1nc2cnc(Oc3ccccc3)nc2n(C2CC2)c1=O -4.69%, O=S1(=O)[C@H]2C[C@@H]3C=C[C@@]2(CN1Cc1ccc(F)cc1)O3 11.2%, Cc1cccc(CNC(=O)c2cnn(-c3nccc(-c4cc5ccccc5o4)n3)c2C2CC2)n1 -4.64%, CN(C)CCCC1(c2ccc(F)cc2)OCc2cc(C#N)ccc21 (stereo unspecified) 17.1% [at 75.8 µM], CN1CCN(c2ncc3nc(-c4ccc(Cl)cc4)c(=O)n(C4CC4)c3n2)CC1 21.9%, COc1cccc(Nc2ncc3nc(-c4cccs4)c(=O)n(C[C@H]4CCCO4)c3n2)c1 84.6%, Nn1nnc2ccccc21 -2.23% [at 75.8 µM], CC(C)[N+](C)(C)CC(O)COc1cccc2ccccc12 (stereo unspecified) 16.8%, CCCC(CCC)C(=O)O, COc1cccc(N2[C@@H](CC(=O)O)c3ccc(/C=C/C(=O)O)cc3S2(=O)=O)c1 -7.59%, CCC1(C2CCN(Cc3ccc(C)s3)CC2)NC(=O)N(CC2COc3ccccc3O2)C1=O (stereo unspecified) -9.69%, Nc1nc2ncc(=O)[nH]c2c(=O)[nH]1 -13.7%, CC1/C=C/C=C/C=C/C=C/C=C/C=C/C=C/C(OC2OC(C)C(O)C(N)C2O)CC2O[C@@](O)(CC(O)CC(O)C(O)CCC(O)CC(O)CC(=O)OC(C)[C@H](C)C1O)CC(O)C2C(=O)O (stereo partly specified) 34%, CC(C)CN1CCC2(CC1)CCN(C(=O)c1cc(C(F)(F)F)cc(C(F)(F)F)c1)CC2 4.87%, O=C(Nc1ccccc1)N1CC[C@@]2(CCCN(C(=O)c3ccco3)C2)C1 -1.39%, CC(=O)Nc1ccc(SC[C@H](Cc2ccccc2)N2CC[C@@H](C)CCC2=O)cc1 9.15%, COc1ccc(Oc2ncc3ncc(=O)n(C[C@H]4CCCO4)c3n2)cc1 -5.08%, COc1ccc2c(c1)CCc1cnc(-n3ncc(C(=O)NCCCN4CCOCC4)c3C)nc1-2 21.9%, CCNc1ncc2ncc(=O)n(C[C@H]3CCCO3)c2n1 19.1%, COc1cc(CNCc2cc3cc(C)ccc3nc2-c2ccc(F)cc2)cc(OC)c1OC 10.1%, O=C(NCC1Cc2cc(-c3cncnc3)cc(Cl)c2O1)c1cccc(Cn2cccn2)c1 (stereo unspecified) 16.5%, CC(=O)N1CCC2(CC1)CCN(c1ccccn1)CC2 23.7%, Cc1ccc(CN2CCOCCS2(=O)=O)cc1 -20.5%, COc1ccccc1CNCCCCCCNCCCCCCCCNCCCCCCNCc1ccccc1OC, CCCCCCC[n+]1ccc(C)c2ccccc21 11.7%, CN[C@@H]1CCc2[nH]c3ccc(C(N)=O)cc3c2C1 -11.1%, NCCC(=O)O, COc1ccc(CNC(=O)[C@@H]2CC=C[C@@H]3CCN(Cc4ccccc4)C(=O)[C@@H]32)cc1 3.37%, O=C1/C(=C/c2ccsc2)CC/C1=C\c1cccs1 5.78% [at 75.8 µM], Cc1ccccc1-c1nc(NCCN2CCOCC2)c2ccccc2n1 27.3%, COCCn1c(=O)c(-c2ccccc2)nc2cnc(Oc3ccc(OC)cc3)nc21 4.11%, c1csc(CNc2ncncc2-c2ccc3c(c2)OCO3)c1 24.5%, O=C(CCCCCCCCCCCCC1CCCC1)Nc1ccc(S(=O)(=O)c2ccc(NC(=O)CCCCCCCCCCCCC3CCCC3)cc2)cc1 15.3%, Nc1nc2ccc([N+](=O)[O-])cc2s1 33.4% [at 320 µM], C=O 8.64%, COc1cc(C[C@H]2C(=O)OC[C@@H]2Cc2ccc(OC)c(OC)c2)ccc1O -7.14%, O=C(c1csnn1)N1CCC2(CCN(Cc3cc(C(F)(F)F)cc(C(F)(F)F)c3)CC2)CC1 -6.7%, O=c1c(-c2ccccc2)nc2cnc(N3CCOCC3)nc2n1Cc1ccc(F)cc1 20.3%, CCNc1ncc2nc(-c3ccc(OC)cc3)c(=O)n(Cc3cccc(OC)c3)c2n1 16.2%, NS(=O)(=O)c1cc2c(cc1C(F)(F)F)NC(Cc1ccccc1)NS2(=O)=O (stereo unspecified), O[C@@H](c1cc(C(F)(F)F)nc2c(C(F)(F)F)cccc12)[C@H]1CCCCN1 -6.35%, C(=C\c1ccccn1)/c1ccccc1 5.74%, COc1ccc(CCNc2ncnc3sc(C(=O)N4CCCCC4)c(C)c23)cc1OC -10.5%, COc1ccc(-c2nc3cnc(OC)nc3n(-c3ccc(OC)cc3)c2=O)cc1 2.15%, CNC(=O)c1ccccc1Sc1ccc2c(/C=C/c3ccccn3)n[nH]c2c1 12.5%, O=S1(=O)CCOC[C@H](c2ccccc2)N1Cc1ccc(F)cc1 -5.02%, O=C(Nc1cccc(F)c1)N1CC[C@@]2(CCCN(C(=O)c3cccc(F)c3)C2)C1 20.6%, CC(CN1c2ccccc2Sc2ccccc21)N(C)C (stereo unspecified), CCC(COC)NC(=O)c1cnn(-c2ncc3c(n2)-c2ccccc2CC3)c1C (stereo unspecified) 15.6%, COc1ccc(CNc2cc(-c3ccccc3CN(C)C)ncn2)c(OC)c1 -12.4%, CN(C)c1nc2c(Br)c(Br)c(Br)c(Br)c2[nH]1 2.14% [at 75.8 µM], CCC1CN(Cc2cn[nH]c2-c2ccccc2)Cc2cc(OC)ccc2O1 (stereo unspecified) -12.9%, O=C(c1ccco1)N1CCC2(CC1)CN(c1cccc(-c3ccccc3)c1)C2 -3.37%, COc1ccc(C(=O)Oc2ccc3c(-c4ccc(OC)cc4)cc(=O)oc3c2)cc1 5.38%, COC(=O)C1CCCCN1Cc1nc(N(C)C)c2ccccc2n1 (stereo unspecified) -12.6%, CC(C)[C@H](CO)Nc1nc(Nc2cc(N)cc(Cl)c2)c2ncn(C(C)C)c2n1 -13%, COc1cc2c(c(OC)c1OC)-c1ccc(OC)c(=O)cc1[C@@H](NC(C)=O)CC2, CN(CCO)C(=O)c1cn(C2CCN(Cc3cccc4ccccc34)CC2)nn1 12.2%, O=C(c1ccc(OCCN2CCCCC2)cc1)c1c(-c2ccc(O)cc2)sc2cc(O)ccc12, O=C1c2ccccc2-c2n[nH]c3cccc1c23, COc1cccc(-c2nccc(-n3ccnc3)n2)c1 -0.507%, CCC(/C=C/C(C)C1CCC2C3CCC4=CC(=O)CC[C@@]4(C)C3CC[C@@]12C)C(C)C (stereo partly specified) -17.8%, COc1cc(-c2ccc(Cl)cn2)cc2c1OCCN(C(=O)c1ccccc1-n1cccn1)C2 11.5%, COCCn1c(=O)c(-c2ccc(F)cc2)nc2cnc(N(C)C)nc21 14.2%, CN1CCC(=O)N(CCSc2ccccc2)CC1 15.6%, COc1ccc(-n2c(=O)c(C)nc3cnc(Oc4cccc(Cl)c4)nc32)cc1 -4.98%
